Over roughly 13,000 compounds, “IFI” has its median near 4; the highest 2% begin near 17. Some of the results follow.

The test can be described thus: GSK_TCMDC: Inhibition Frequency Index (IFI). The number of non-kinase HTS assays where a compound showed > 50 % inhibition, expressed as a percentage of the number of such assays in which the compound was tested (-0 is zero). The format is functional.
On to `CC(Oc1cccc(Cl)c1)C(=O)N1CCc2ccccc21` (stereo not given), for which the IFI was determined as 1.44%.

For the molecule `CN(C)c1cccc2c(S(=O)(=O)Nc3cccc(CCN4CCC(N5CCCCC5)CC4)c3)cccc12`, the IFI was 18%.

As for `CC(C)(CNCc1ccc(C(F)(F)F)cc1)c1nc(-c2ccnc(N)n2)c(-c2ccc(Cl)c(O)c2)[nH]1`, the IFI came to 10.6%.

On to `C/C(=C\C(=O)NC1CC1)c1ccccc1OCc1ccccc1`, for which the IFI came out at 1.5%.

Turning to `Cc1ccc(CN2CCCN(Cc3cccc(NC(=O)c4ccc(-c5ccccc5)cc4)c3)CC2)cc1C`, the IFI was found to be 5.48%.

The molecule `O=C(Cc1ccc[n+]([O-])c1)Nc1ccc(-c2cccc(-c3nc4cc(C(F)(F)F)ccc4[nH]3)c2)cc1` showed an IFI of 0.9%.

As for `COc1ccc2c(=O)c(-c3ccc(OC(F)(F)F)cc3)c(C)[nH]c2c1`, the IFI is -0%.

Take `FC(F)(F)c1ccc2[nH]c(-c3cccc(-c4ccc(CNCCN5CCNCC5)cc4)c3)nc2c1`: the IFI worked out at 9.9%.

`Oc1ccc(CCCNc2nc(NCc3cccc4ccccc34)nc(N3CCCNCC3)n2)cc1` yielded an IFI of 11.9%.

For `CCCCCNC(=N)N/N=C/c1c[nH]c2ccc(OC)cc12`, the IFI came to 7.75%.

On to `CCCN1CCc2c(sc3nc(SCC(=O)Nc4ccc(C)cc4)n(-c4ccc(C)cc4)c(=O)c23)C1`, for which the IFI was 2.74%.

On to `COc1cc(NC(=O)c2cccs2)c(C(=O)NCc2ccc(C)cc2)cc1OC`, for which the IFI amounted to 0%.

`O=C(Nc1ccc(N2CCN(Cc3ccccc3)CC2)cc1)c1cccs1` registered an IFI of 0%.

`Cc1nc(N)nc(N)c1-c1ccc(Br)c([N+](=O)[O-])c1` displayed an IFI of 3.08%.

The molecule `COc1ccc2nccc([C@@H](O)CN3CCC(NCc4cc5ccccc5nc4O)CC3)c2c1` had an IFI of 1.39%.

As for `C[C@H]1CN(Cc2cccc(-c3cc(CNC(=O)c4cccc(C(=O)c5ccc(Cl)c(Cl)c5)c4)ccc3F)c2)CCN1`, the IFI came to 18.6%.

Take `COc1ccc2c(c1)[nH]c1c(/C=C/c3ccc([N+](=O)[O-])cc3)nccc12`: the IFI is 2.96%.

`CC(C)C[C@H](NC(=O)c1cc2ccccc2s1)C(=O)N[C@H]1CCN(Cc2ccc(OC3CCN(C)C3)c(Cl)c2)C1` (stereo not given in full) registered an IFI of 6.67%.

As to `COc1ccc(C#Cc2ccc(-c3c(C)[nH]c(C)c(Cl)c3=O)cc2)cc1`, the IFI was found to be 0.88%.

Regarding `CCCN(Cc1ccc(C)cc1)Cc1cc(=O)c2cc(Cl)ccc2[nH]1`, the IFI came out at 9.09%.

`Nc1ncc(-c2ccsc2)cc1-c1nc2ccccc2[nH]1` displayed an IFI of 5.71%.

In turn, `O=C(N[C@H]1CCN(CCc2ccc(O[C@H]3CCNC3)c(Br)c2)C1)c1ccc(Cl)c(Cl)c1` displayed an IFI of 4.2%.

As for `CCCCCCn1c(Sc2ccc(C#N)c([N+](=O)[O-])c2)nnc1-c1ccc(Cl)cc1`, the IFI turned out to be 6.43%.

Molecule `Fc1cccc(Nc2nc(NCc3ccc4ccsc4c3)nc(Nc3cccc(F)c3)n2)c1` came in with an IFI of 3.85%.

`COc1cccc(CNC(=O)c2cccc(-c3ccc(CN4CCC(N5CCCC5)CC4)cc3)n2)c1` yielded an IFI of 9.09%.

In turn, `COc1ccc(Nc2nc(N3CCCC3)c3ccccc3n2)cc1` displayed an IFI of 7.76%.

Turning to `CCCCc1cc(NCc2ccncc2)nc(Nc2ccc(OC)cc2)n1`, the IFI was found to be 4.48%.

As for `CC(=O)N1N=C(c2[nH]c3ccc(Br)cc3c2C)OC1c1ccccc1` (stereo not given), the IFI is 2.44%.

In turn, `COc1cc2nc(NCc3nc4ccccc4[nH]3)nc(N)c2cc1OC` returned an IFI of -0%.

For `Cc1ccc(NC(=O)c2ccc(N3CCN(c4ccncc4)CC3)cc2)cc1F`, the IFI was 6.9%.

For `O=C(Cn1c(SCc2cccc(F)c2F)cc(=O)c2ccccc21)N(CCc1c[nH]cn1)Cc1ccc(-c2ccc(C(F)(F)F)cc2)cc1`, the IFI was found to be 5.19%.

In the case of `N=c1n(CCN2CCCCC2)c2ccccc2n1CC(O)c1ccc(Cl)c(Cl)c1` (stereo not given), the IFI is 5.04%.

With `CC(C)CCC[C@@H]([C@@H](CC1CCCCC1)C(=O)N[C@@H](CCCCNC(=O)OCc1ccccc1)C(=O)Nc1nccs1)N(O)C=O`, the IFI was 1.53%.

For `O=c1cc(NCCCNC2CCCc3c2cc(Cl)c(Cl)c3Cl)[nH]c2ccccc12` (stereo not given), the IFI stood at 9.86%.

For `O=C(C1CC1c1ccccc1)N(Cc1ccc(-c2ccc(CNCCc3ccccc3)cc2)cc1)C1CCNCC1` (stereo not given), the IFI came out at 4.48%.

As to `Cn1cnnc1Sc1ccc(CN2CCOc3ccc(C4=CCCCC4)cc3C2)o1`, the IFI is 2.63%.

The molecule `CC1CN(c2cnn(C/C=C/c3ccc(NC(=O)c4ccc([N+](=O)[O-])cc4)cc3)c(=O)c2Cl)CC(C)N1` (stereo not given) yielded an IFI of 1.28%.

`CC(C)OC(=O)c1ccc(NC(=O)N[C@@H](Cc2ccc(O)cc2)C(=O)NC2CC3CCC(C2)N3Cc2ccccc2)cc1` (stereo not given in full) had an IFI of 1.74%.

In turn, `O=C(Cn1c(CCc2cccc(F)c2F)cc(=O)c2ccccc21)N(Cc1ccc(-c2ccc(C(F)(F)F)cc2)cc1)C1CCN(CCN2CCOCC2)CC1` registered an IFI of 7.3%.

Take `Cc1cccc2nc(-c3ccc(-c4cccc(CNC(C)C)c4)s3)[nH]c12`: the IFI was determined as 5.88%.

`COc1ccc(CCN2CCC(CN(C)Cc3cnn(-c4ccccc4)c3)CC2)cc1`: the IFI was -0%.

In the case of `CCCNCc1ccc(-c2ccc(CN(CCOC)C(=O)CCCOCc3ccccc3)cc2)nc1`, the IFI was found to be 2.24%.

For the molecule `COc1ccc(OC)c(Cc2cnc3nc(N)nc(N)c3c2C)c1`, the IFI turned out to be 4.14%.

`COc1ccc2ncc(F)c(CCN3CCC(NCc4ccc5c(c4)CCO5)CC3)c2n1` registered an IFI of 4.39%.

The molecule `Cc1noc(C)c1CN1Cc2ccccc2OC2(CCN(Cc3c[nH]c4cnccc34)CC2)C1` registered an IFI of 0%.

`COc1cc(C)nc2ccc(NC(=O)c3ccc(C(=O)Nc4ccc5nc(C)cc(OC)c5c4)cc3)cc12` registered an IFI of -0%.

`COc1ccc(Nc2ncc3c(-c4cccc(NC(=O)Cc5ccc(F)cc5)c4)c[nH]c3n2)cc1OC` returned an IFI of 3.65%.

For `O=C(/C=C/c1c[nH]c2ccccc12)NCCCCCN1CCC(c2c[nH]c3ccccc23)CC1`, the IFI stood at 4.29%.

Consider `CCC[C@@H]([C@@H](CC(C)C)C(=O)N[C@@H](CCCNc1nccc(C(F)(F)F)n1)C(=O)Nc1nccs1)N(O)C=O`, for which the IFI was determined as 2.26%.

As for `CC(C)CCNC(=O)C1Cc2c([nH]c3ccc(Br)cc23)C2(CCN(Cc3ccccc3)CC2)N1` (stereo not given), the IFI amounted to 7.04%.

The molecule `Cc1ccccc1C1CCN(C2CCC(NC(=O)/C=C/c3cc(C(F)(F)F)ccc3F)CC2)CC1` (stereo not given) displayed an IFI of 8.33%.

On to `O=C(NC1CCCCN(Cc2ccccc2O)C1)c1cc(F)cc(F)c1` (stereo not given), for which the IFI was -0%.

Regarding `CCN(CC)CCN(Cc1ccc(-c2ccc(C(F)(F)F)cc2)cc1)C(=O)Cn1c(CCc2cccc(F)c2F)cc(=O)c2c1CCCC2`, the IFI was 8.57%.

In the case of `COc1ccccc1N1CCN(C(C(=O)NCc2cccc(F)c2)c2ccc(C)cc2)CC1` (stereo not given), the IFI was found to be 0.69%.

In the case of `CCC[C@@H]([C@@H](CC1CCCCC1)C(=O)N[C@H](C(=O)Nc1nccs1)C(C)(C)SC)N(O)C=O`, the IFI was determined as 5.84%.

For the origin of these results see ChEMBL document CHEMBL1157539, “Thousands of chemical starting points for antimalarial lead identification” (Nature, 2010).
